{
  "source": "PubChem BioAssay AID624418",
  "about": "(National Center for Advancing Translational Sciences (NCATS), 2012)",
  "note": "The campaign covered roughly 410,000 compounds. About 530 (0.13%) were called active. Inconclusive means that the source gave no clear call. Such entries were picked first, then a sample of the others. Calls follow the shape of the dose curve; as a rule, active = well fitted inhibition curve with a large enough effect; inconclusive = small, poorly fitted or top-dose-only effect, or another doubt; inactive = no such curve, though single readings can be large or run the other way. Potencies beside an inconclusive call are fits to weak or partial responses and may not hold up. % is scaled to controls: 0 for no effect and ±100 for the full control effect; potency is read from the fitted curve at half-maximal effect.",
  "data": [
    {"assay": "qHTS of GLP-1 Receptor Inverse Agonists: Cytotox Screen", "details": "HEK293 cAMP-luciferase reporter cells, luminescence, 24 h; activity change, negative = inhibition: at 38.3 µM (top of the series) unless noted", "procedure,_shortened": "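To flag toxic compounds, the library was rerun on cells for 24 hr at 37 deg C and 5% CO2. Viability-linked luminescence was captured 12 min after adding luciferase detection reagent.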", "values": [
      {"smiles": "Cc1ccc(Cl)cc1-n1ncc2c(N3CCC(C)CC3)ncnc21", "Potency": "inactive"},
      {"smiles": "CC(c1ccccc1)N1C(=O)c2ccc(C(=O)Nc3ccccc3C(=O)O)cc2C1=O", "note": "(centres undefined)", "Potency": "inactive"},
      {"smiles": "CC(=O)Nc1ccc(-c2csc(-c3cccnc3)n2)cc1", "Potency": "inconclusive: 10 µM [inhibitor, single point]"},
      {"smiles": "O=C(Cc1csc(NC(=O)Nc2ccc(Cl)cc2)n1)NC1CCCC1", "Potency": "inconclusive: 28.2 µM [inhibitor, single point]"},
      {"smiles": "Cc1ccc(NC(=S)NNC(=S)NNc2ccccc2)cc1C", "Potency": "inconclusive: 28.2 µM [inhibitor, single point]"},
      {"smiles": "NC(Cc1ccc(F)cc1)c1csc(Nc2cc(NCc3ccco3)ncn2)n1", "note": "(centres undefined)", "Potency": "inconclusive: 12.6 µM [inhibitor, single point]"},
      {"smiles": "c1ccc(OCCNc2nc(NCC3CC3)nc3ccsc23)cc1", "Potency": "inactive"},
      {"smiles": "N#C/C(=C(/O)COC(=O)c1cccnc1Cl)c1nc2ccccc2[nH]1", "Potency": "inconclusive: 28.2 µM [inhibitor, single point]"},
      {"smiles": "Cc1cccc(OCC(=O)Nc2cccc3nsnc23)c1", "Potency": "inconclusive: 2.51 µM [inhibitor, full curve, poor fit]"},
      {"smiles": "CCc1nc2ccc(C(=O)Nc3ccc4c(c3)OCC(=O)N4)cn2c1N(CC)Cc1cccc(Br)c1", "Potency": "inconclusive: 12.6 µM [inhibitor, single point]"},
      {"smiles": "CCOC(=O)C1=C(C)N=C2c3ccccc3C(=O)C2C1c1ccc(Cl)cc1", "note": "(centres undefined)", "Potency": "inconclusive: 28.2 µM [inhibitor, single point]"},
      {"smiles": "COc1cc(N2CCCC2)ccc1[N+](=O)[O-]", "Potency": "inconclusive: 14.1 µM [inhibitor, partial curve, poor fit]"},
      {"smiles": "CCOc1ccc(Nc2nc(C)c(NC(=O)c3cccc(OC)c3)c(Nc3ccc(OCC)cc3)n2)cc1", "Potency": "inactive"},
      {"smiles": "C=CC[C@H](CC(=O)N[C@H](CO)Cc1ccccc1)C(=O)N[C@@H](COC(=O)[C@@H](CC=C)Cc1ccc(F)cc1)Cc1c[nH]c2ccccc12", "Potency": "inactive"},
      {"smiles": "C=CCN1C(=O)CSc2ccc(C(=O)NCCC3=CCCCC3)cc21", "Potency": "inconclusive: 5.62 µM [inhibitor, partial curve, poor fit]"},
      {"smiles": "Cc1cn(C)c(CC(=O)N2CCN(c3ccccc3F)CC2)c1C(=O)O", "Potency": "inactive"},
      {"smiles": "CCN(CC)CCNCC(O)(c1ccc(Cl)cc1)c1ccc(Cl)cc1", "Potency": "inactive"},
      {"smiles": "CN(C)C(=S)N=Nc1[nH]c2ccccc2c1O", "Potency": "inconclusive: 5.62 µM [inhibitor, full curve]"},
      {"smiles": "Cc1ccccc1NC(=S)N/N=C1\\CC(C)(C)Oc2ccc(O)cc21", "Potency": "inconclusive: 5.01 µM [inhibitor, full curve, poor fit]"},
      {"smiles": "CCOC(=O)c1ccc(NC(=S)NC(=O)C2CCCC2)cc1", "Potency": "inconclusive: 28.2 µM [inhibitor, single point]"},
      {"smiles": "CCOc1ccc(S(=O)(=O)NCc2ccccn2)cc1NC(=O)c1ccccc1", "Potency": "inconclusive: 0.794 µM [inhibitor, full curve, poor fit]"},
      {"smiles": "Cc1ccc(-n2cc(CN3CCC(O)(c4ccccn4)CC3)c(-c3ccc(F)cc3)n2)cc1", "Potency": "inconclusive: 22.4 µM [inhibitor, single point]"},
      {"smiles": "COc1ccccc1OCCn1nnc2ccccc21", "Potency": "inactive"},
      {"smiles": "Cc1cc(C)n2[nH]c(=O)c(N=Nc3ccccc3)c2n1", "Potency": "inconclusive: 10 µM [inhibitor, partial curve, poor fit]"},
      {"smiles": "CC(C)N(C(=O)CSc1nc2ccccc2n1-c1ccccc1)C(C)C", "Potency": "inactive"},
      {"smiles": "CCCOc1ccccc1NC(=O)/C=C/C(N)=O", "Potency": "inconclusive: 11.2 µM [inhibitor, single point]"},
      {"smiles": "CC1CCN(S(=O)(=O)c2cc(C(=O)Nc3ccc(Br)cc3F)n(C)c2)CC1", "Potency": "inconclusive: 12.6 µM [inhibitor, partial curve, poor fit]"},
      {"smiles": "Cc1cc(C(C)(C)C)cc(C)c1Cn1c2[n+](c3ccc(C(F)(F)F)cc31)CCCCC2", "Potency": "inconclusive: 11.2 µM [inhibitor, partial curve]"},
      {"smiles": "CCS(=O)(=O)NCCNc1ccc([N+](=O)[O-])cc1", "Potency": "inconclusive: 3.55 µM [inhibitor, partial curve, poor fit]"},
      {"smiles": "CCCC(=O)OCCNc1cc(Sc2nc3ccccc3[nH]2)c2nonc2c1[N+](=O)[O-]", "Potency": "inconclusive: 10 µM [inhibitor, single point]"},
      {"smiles": "C/C(=N\\NC(=O)c1cc(C2CC2)nc2ccccc12)c1ccc(C)s1", "Potency": "inconclusive: 11.2 µM [inhibitor, single point]"},
      {"smiles": "O=C(Cn1ncc2c(Cl)cccc21)NCc1cccc(Br)c1", "Potency": "inactive"},
      {"smiles": "COc1ccc(NC(=O)Cn2nnc(C(=O)NCc3cccs3)c2N)c(OC)c1", "Potency": "inconclusive: 12.6 µM [inhibitor, single point]"},
      {"smiles": "O=C(/C(=C/O)N=Nc1ccccc1)c1ccncc1", "Potency": "inconclusive: 14.1 µM [inhibitor, single point]"},
      {"smiles": "CCOc1cc(CNc2ccc(O)cc2)cc(Br)c1OCc1ccccc1F", "Potency": "inconclusive: 28.2 µM [inhibitor, single point]"},
      {"smiles": "Cn1cnc2c(N/N=C/c3cccs3)ncnc21", "Potency": "inconclusive: 12.6 µM [inhibitor, single point]"},
      {"smiles": "CCCCN1CCc2nc(N3CCN(C)CC3)ncc2C1", "Potency": "inactive"},
      {"smiles": "COc1cc(C2c3c(n[nH]c3C)C(=O)N2c2ccc(Br)cc2)ccc1O", "note": "(centres undefined)", "Potency": "inactive"},
      {"smiles": "CC1CC(=O)N(c2ccc(C(C)C)cc2)C(=O)C1", "Potency": "inactive"},
      {"smiles": "CC(NC(=S)NC1CCCCC1)c1ccccc1", "note": "(centres undefined)", "Potency": "inconclusive: 12.6 µM [inhibitor, partial curve, poor fit]"},
      {"smiles": "Cc1csc(Nc2ccccc2C(F)(F)F)n1", "Potency": "inactive"},
      {"smiles": "CC1CCc2c(C(=O)Nc3nccs3)csc2C1", "note": "(centres undefined)", "Potency": "inconclusive: 11.2 µM [inhibitor, single point]"},
      {"smiles": "CCO[C@@H]1OC(C(=O)N2CCCCCCC2)=C[C@H](c2ccc(C(F)(F)F)cc2)[C@H]1CCCO", "Potency": "inactive"},
      {"smiles": "CCN(CC)CCN(C(=O)/C=C/c1cccs1)c1nc2ccc(OC)cc2s1", "Potency": "inactive"},
      {"smiles": "Oc1ccc(C=NN=C2c3ccccc3-c3ccccc32)c(O)c1", "Potency": "inconclusive: 28.2 µM [inhibitor, single point]"},
      {"smiles": "COc1ccc2nc(SCC(=O)Nc3ccccc3)[nH]c2c1", "Potency": "inconclusive: 1 µM [inhibitor, full curve]"},
      {"smiles": "O=C(Cc1ccccc1)NCCS(=O)(=O)N1CCN(c2cccc(Cl)c2)CC1", "Potency": "inactive"},
      {"smiles": "O=C1OCC2=C1C(c1ccc3c(c1)OCO3)c1cc3c(cc1O2)OCO3", "note": "(centres undefined)", "Potency": "inconclusive: 3.55 µM [inhibitor, partial curve, poor fit]"},
      {"smiles": "CC(C)Cc1ccc(C(C)C(N)=NCCc2ccccc2)cc1", "note": "(centres undefined)", "Potency": "inconclusive: 12.6 µM [inhibitor, single point]"},
      {"smiles": "Cc1ccc(SCCNC(=S)Nc2ccc(C)c(C)c2)cc1", "Potency": "inconclusive: 12.6 µM [inhibitor, single point]"},
      {"smiles": "Cc1ccc(C(=O)N/C(=C\\c2ccc(C(C)C)cc2)C(=O)NCCCN2CCOCC2)cc1", "activity change, negative = inhibition": "inactive: -0.851% [at 1.53 µM]"},
      {"smiles": "COC(=O)c1c(NC(=O)/C=C/C(=O)O)sc(C)c1-c1ccc(C)c(C)c1", "Potency": "inconclusive: 10 µM [inhibitor, partial curve]"},
      {"smiles": "Cc1cc(NC(=O)CSc2nnc(-c3ccoc3C)o2)no1", "Potency": "inconclusive: 8.91 µM [inhibitor, partial curve]"},
      {"smiles": "CC1(C)OC(=O)C2=C(C[C@@H](CCOCc3ccccc3)O[C@@H]2c2ccc(F)cc2)O1", "Potency": "inactive"},
      {"smiles": "CCCn1c(CN2CCN(C(=O)c3ccco3)CC2)nc2cc(S(=O)(=O)N(C)C)ccc21", "Potency": "inactive"},
      {"smiles": "Cc1cc(C)c(S(C)(=O)=O)c(Oc2ccc(C(C)(C)C)cc2)n1", "Potency": "inactive"},
      {"smiles": "Nc1c(C(=O)NCc2ccccc2)nnn1Cc1cccc(Br)c1", "Potency": "inconclusive: 3.98 µM [inhibitor, full curve, poor fit]"},
      {"smiles": "O=C(NC(c1ccc(-c2ccccc2)cc1)c1cnccn1)C1CCN(CCOc2ccc(F)cc2)CC1", "note": "(centres undefined)", "Potency": "inconclusive: 22.4 µM [inhibitor, single point]"},
      {"smiles": "CC1CCCCN1C(=O)COC(=O)c1cc([N+](=O)[O-])ccc1N1CCOCC1", "note": "(centres undefined)", "Potency": "inconclusive: 10 µM [inhibitor, single point]"},
      {"smiles": "COCCCN=Cc1c(-c2ccccc2)[nH]n(-c2nc3ccccc3s2)c1=O", "Potency": "inconclusive: 11.2 µM [inhibitor, single point]"},
      {"smiles": "CC(C)(C)C(=O)Cn1ncc(Cl)c(Cl)c1=O", "Potency": "inconclusive: 28.2 µM [inhibitor, single point]"},
      {"smiles": "O=C1CCn2nc(-c3ccc(Cl)cc3)cc2N1", "Potency": "inactive"},
      {"smiles": "CCOc1ccc(NC(=O)NCCN2CCN(c3ccccc3F)CC2)cc1", "Potency": "inactive"},
      {"smiles": "O=C(COC(=O)[C@@H]1CC(O)CN1S(=O)(=O)c1ccc(Cl)c(Cl)c1)NC(=O)NCc1ccccc1", "note": "(some centres undefined)", "Potency": "inconclusive: 28.2 µM [inhibitor, single point]"},
      {"smiles": "O=C(c1ccccc1)N1CCN(c2ccc([N+](=O)[O-])c(NCc3cccnc3)c2)CC1", "Potency": "inconclusive: 12.6 µM [inhibitor, partial curve, poor fit]"},
      {"smiles": "O=C1C2C(c3ccccc3)CC=CC2[C@H](c2ccc(C(F)(F)F)cc2)N1Cc1ccccc1", "note": "(some centres undefined)", "Potency": "inconclusive: 12.6 µM [inhibitor, single point]"},
      {"smiles": "Cc1ccc(C)c(NC(=O)CCCN2C(=O)C(c3ccccc3)Oc3cccnc32)c1", "note": "(centres undefined)", "Potency": "inactive"},
      {"smiles": "Cc1ccc(Nc2nnc(SCC(=O)Nc3cccc(S(=O)(=O)NC4=NCCCCC4)c3)s2)c(C)c1", "Potency": "inconclusive: 10 µM [inhibitor, single point]"},
      {"smiles": "CC(=O)Nc1cccc(NC(=O)CSc2cn(CC(=O)N3CCCCCC3)c3ccccc23)c1", "Potency": "inactive"}
    ]}
  ]
}
